In the supplement of paper PMC11417369:
± gives the standard deviation of the averaged measurements. The list shows a part of the results.

System: PfAP2-G AP2 domain (GST-tagged)
Assay: gcPBM binding intensity (ln(normalized median fluorescence intensity)); higher = stronger DNA binding
Method in brief: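 Binding intensity is defined as the maximum Masliner-normalised natural-log median intensity across replicate spots for either probe orientation. It was measured on an Agilent 4 × 180k array of primer-extended double-stranded 36-bp intergenic genomic probes and negative controls, to which GST-tagged P. falciparum DNA-binding domains made in E. coli were applied for 1 h in 1× PBS with 1% milk, 0.2 mg/ml BSA, 0.5% salmon testes DNA and 0.03% Triton X-100. Detection was by Alexa488 anti-GST antibody and scanning at 488 nm.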

Sequence	gcPBM binding intensity (ln)
ATTATAAATAAAATATGTACATATGTATAAATACAT [XGTACX_site4002]	11.3 ± 0.64
AAGAAAAAAAAAAAAAAAAAAAAAAAAAAAAAAAAA [TGCATGCA_negctrl_site263]	9.565 ± 0.078
TTCTGTATATAGTGTGCACACAATTAAAAAAAAAAA [CACACA_site8400]	10.7 ± 0.7
AAAACACATACTATATGTACATATAATAATTTATAT [XGTACX_site4525]	11.2 ± 0.65
AAAAAAATTTTTAAAAGTACATTAATATTAATATGT [XGTACX_site5177]	11.4 ± 0.7
ACATTACAATTATTATAATCAATATATAACCTCTAA [TGCATGCA_negctrl_site105]	9.62 ± 0.28
TTTTAATTAAATACAAAAAAAAAAAAAAAAAAAAAA [CACACA_negctrl_site1631]	9.54 ± 0.36
TTTACACTTTTTTTTGTACACACTAATAAGATTAAC [CACACA_site9304]	11.4 ± 0.72
AAATATATTTTTTTTTGTACTCAAAAAGAAAAAAAA [XGTACX_site8540]	11.3 ± 0.83
ATAAAATTATATACTCGTACACAAAAAAAAAAAATA [XGTACX_site6035]	11.4 ± 1
TATATAATAACATATGCATGCAAGTAATATAACCAA [TGCATGCA_site324]	10.1 ± 0.099
TATAATATATATGTAACACACAAAAGTTATATACTT [CACACA_site2868]	9.985 ± 0.064
AAAATAAATATAAAATGTACTTATATATATATATAT [XGTACX_site7803]	10.9 ± 0.7
TATGAAGTGCACAATACACACTAATTCTATATAAAT [CACACA_site7269]	10.5 ± 0.46
ATAATTAAATAAAAAAGTACACATACATCATAATGC [XGTACX_site7656]	11.5 ± 0.87
CAATTAAAAAATAATACATGCATATAAATAGATATT [TGCATGCA_site427]	9.72 ± 0.16
TAAGAATACGAAAGGTGTACACTGTGGAGACTTCAA [XGTACX_site2619]	11.5 ± 0.83
ATATATTATATTTAAGTGCATTAATTAAAATGCTTA [GTGCAC_site9403]	9.84 ± 0.14
AAAAAAAATCAGACAGGTACACATTCCATGTTCAAA [XGTACX_site5380]	11.1 ± 0.69
CATTAATATATATATAGTACATATACACCTTCATTA [XGTACX_site8473]	10.9 ± 0.53
TATTCATGCATATACACACACATATATTTATATTTT [CACACA_site7786]	9.975 ± 0.078
TTGTGAATAACTAAGAAGAAAAAGATAAATATGTAT [TGCATGCA_negctrl_site388]	9.93 ± 0.16

Sequence	gcPBM binding intensity (ln)
TTTTGTTATATTCAATATTTATATATTATAAATATA [CACACA_negctrl_site1705]	9.955 ± 0.092
TTTTTCTTTTTTACAGTGCATAAATATATGTATTGT [GTGCAC_site9399]	10.1 ± 0.32
AATAATATTGAAATGTGTACGTATTTATATTTTATG [XGTACX_site8252]	11.6 ± 1
AGCCATTATAATTCTTGTACATAATATAGCTATTTT [XGTACX_site1723]	10.8 ± 0.3
ATCATTGAAGTTAAAAATATAAAGTATTCAGAAGGG [XGTACX_negctrl_site560]	10.2 ± 0.25
AATATATATATAGGATGTACACATAATTCAAATATA [XGTACX_site2755]	11.4 ± 0.81
TCACTTTTATAATATAATATTCTATATCTTATTTTT [GTGCAC_negctrl_site717]	9.74 ± 0.16
TTTTTTATTTTATTTTTTTCTGCTTATCCACATTAG [XGTACX_negctrl_site108]	9.93 ± 0.44
GAGCACCAAAATATATGTACATATGATAAATGTGAA [XGTACX_site1130]	11.3 ± 0.81
ACATATATATAATATATATTTTTCGTGTGGTGTCAC [CACACA_negctrl_site543]	10.01 ± 0.028
TTATGGAGAGTTATATGTACGAAAAATATGTATAAG [XGTACX_site515]	11 ± 0.59
AGAATTATTGTTAATGCATGTGGAAGTTAAAATATT [TGCATGCA_site188]	10.03 ± 0.035
AATAAATTAAAACAGGTGCACTATATTACACACGCT	10.3 ± 0.25
TAGATACAGAAACACACACACACATACATATATACA [CACACA_site3437]	10.01 ± 0.042
TATAATATATATTTGTGTCCACAACATTTTTAATAT [XGTACX_site2089]	11.3 ± 0.73
TATTTAAATTGTAAGTGTACATATATAAATGTAAAA [XGTACX_site1609]	11.3 ± 0.93
TATATAGTAATTTATTCACACAATTGGCACACCTCA [CACACA_site4679]	10.2 ± 0.23
TTACGTATGTATTATGTTGTATATGAAATTAAAAAA [GTGCAC_negctrl_site292]	10.04 ± 0.099
AAAAAAAACAGACACACACACATACACATACATACA [CACACA_site2857]	10.2 ± 0.14
TAATTATGTACTATTATACACACGTTTAATTGTAAA [CACACA_site206]	11.2 ± 0.77
TAGATACATACACGCACACACATATATAAATAAATA [CACACA_site6157]	10.4 ± 0.45
